Experimental data reported in the supplement of paper PMC12632987.
The full ranking holds about 1,800 sequences; the median of “median log2 fold change of GCK-ALFA target abundance (FLAG IP / Myc IP barcode read proportion)” is about 0.14, and the lowest 2% start at about -0.84. This is one part of the list.

T1: TRAF2, Q12933
T1 chain: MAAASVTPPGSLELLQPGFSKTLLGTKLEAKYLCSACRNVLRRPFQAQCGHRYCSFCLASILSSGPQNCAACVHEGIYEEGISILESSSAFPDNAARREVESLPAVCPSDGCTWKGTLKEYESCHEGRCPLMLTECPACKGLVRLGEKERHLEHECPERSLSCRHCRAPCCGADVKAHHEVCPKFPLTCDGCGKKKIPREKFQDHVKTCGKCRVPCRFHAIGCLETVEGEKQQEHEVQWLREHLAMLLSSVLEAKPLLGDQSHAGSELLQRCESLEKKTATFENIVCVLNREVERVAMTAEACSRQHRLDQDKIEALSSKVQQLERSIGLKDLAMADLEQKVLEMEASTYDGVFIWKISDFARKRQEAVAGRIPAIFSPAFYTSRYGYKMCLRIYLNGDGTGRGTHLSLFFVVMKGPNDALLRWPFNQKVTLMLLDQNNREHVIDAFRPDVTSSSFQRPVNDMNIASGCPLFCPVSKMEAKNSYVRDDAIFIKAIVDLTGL

B1: traf2_out_17_162_1487 (protein)
chain: EELERRLEELEKRLEELEKRLEELKKKLENIENLSKEELTDLLVEVSEARREARRLAEELRELREETGDEELEELIERAERLAEELQRLANKIYKELEKK
B2: traf2_out_9_132_2601 (protein)
chain: SPEEERRARTEALLAEDRADPATRGHYLAVDFALELSRIAGEGLDDLKTKSVAEVTAAFEAAADALLARYTAQDPSIRTTLTTIREQELARFLEEVERAQ
B3: traf2_out_14_154_1272 (protein)
chain: DELFDELEYHSRLSRHYEAIVDAYETEGREAAAKMAKETTADLIARYPEKAAEFKAELEEILAALNGTEEEQAAMVAKLKAESEEHKKKARELFKKIEEE
B4: traf2_out_6_156_2415 (protein)
chain: MVEKIFEETLKKIKEEIKKLSEASEEKKIKYISDIAGTFYKALQKLREAGASLEEIKEFSKRLLEETKKLAKEAGLPEETINLLLSSLTAVANVAIAEAK
B5: traf2_out_18_3_1904 (protein)
chain: KEEKRKELSDKIDEIEDEARAYARRVLDELRARHPEVAAELDALRAVLEAGGGAFGVLEALAELARRLGEEELAEEIERFIREKRKEMQELVDKYEELIK
B6: traf2_out_11_169_853 (protein)
chain: EEKEKNRKIIDKALELTDEAKARLEEHALALAREAGLDEAEVRAIFAAHAGKSLSAVAAALIAWFRAQGKEDAAAAVEAKYEELKDEINKKMTAFLKELE
B7: traf2_out_17_162_1611 (protein)
chain: SELEEKLKRLEELLERLEKKLKELEEKLKNIDKLSKEELTDLLVEASEARREALEALEEIRKLKSLLDPELYERLSKRFEEIAEKFQRLANKFYKKLEEK
B8: traf2_out_20_38_2031 (protein)
chain: SEEEEEKKRLEEAIKVANDAYDRYTERFAALRAAGRTVEEMAAETRAEVRELLTAAGLEEEAEELIADIDLALGSPEAERLLVRILARAEALVWQKKKNE

Target: T1, TRAF2, Q12933
Experiment: median log2 fold change of GCK-ALFA target abundance (FLAG IP / Myc IP barcode read proportion) (log2 ratio); each designed protein is fused to an ALFA-tag nanobody in HEK293 cells to bring the named protein to FLAG-tagged glucokinase (GCK); Myc marks an untargeted standard; higher = target protein stabilised (more abundant)
Conditions: target protein: 3xFLAG-MCP-GCK-ALFA reporter; HEK293 landing pad (RPLP)
Method in brief: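 Sequencing of reverse-transcribed, amplified circular RNA barcodes from anti-FLAG and anti-Myc immunoprecipitates provided the readout for an ALFA-nanobody-fused binder library recombined into HEK293 landing-pad cells. Those cells were induced with 2 μg mL^−1 doxycycline, transfected with a plasmid expressing a FLAG-tagged target and a Myc-tagged standard, and lysed after 48 h. Target abundance is the per-binder median log2 ratio of FLAG to Myc barcode read proportions. Only barcodes at a proportion of ≥10^−7 in both replicates and binders with ≥3 barcodes per replicate were kept, with a 10^−6 pseudocount added before the two replicates were pooled.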

Binder | median log2 fold change
B1 | 0.163
B2 | 0.281
B3 | 0.19
B4 | -0.0291
B5 | -0.105
B6 | 0.151
B7 | -0.0185
B8 | -0.852
